# In article PMC4336329 (PLoS ONE, 2015):
# About 14,000 (4.5%) of roughly 310,000 compounds showed an effect of 50% or more. Effects have a minus sign here. The list shows a part of the results.
# Target: human ether-à-go-go-related gene (hERG) potassium channel (human, UniProt Q12809)
# Test: primary screen, population patch clamp on CHO cells stably expressing hERG
# 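Note: peak tail current of the secondary pulse compared with the same well before compound.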
# Chain of human ether-à-go-go-related gene (hERG) potassium channel (Q12809 whole entry, looked up): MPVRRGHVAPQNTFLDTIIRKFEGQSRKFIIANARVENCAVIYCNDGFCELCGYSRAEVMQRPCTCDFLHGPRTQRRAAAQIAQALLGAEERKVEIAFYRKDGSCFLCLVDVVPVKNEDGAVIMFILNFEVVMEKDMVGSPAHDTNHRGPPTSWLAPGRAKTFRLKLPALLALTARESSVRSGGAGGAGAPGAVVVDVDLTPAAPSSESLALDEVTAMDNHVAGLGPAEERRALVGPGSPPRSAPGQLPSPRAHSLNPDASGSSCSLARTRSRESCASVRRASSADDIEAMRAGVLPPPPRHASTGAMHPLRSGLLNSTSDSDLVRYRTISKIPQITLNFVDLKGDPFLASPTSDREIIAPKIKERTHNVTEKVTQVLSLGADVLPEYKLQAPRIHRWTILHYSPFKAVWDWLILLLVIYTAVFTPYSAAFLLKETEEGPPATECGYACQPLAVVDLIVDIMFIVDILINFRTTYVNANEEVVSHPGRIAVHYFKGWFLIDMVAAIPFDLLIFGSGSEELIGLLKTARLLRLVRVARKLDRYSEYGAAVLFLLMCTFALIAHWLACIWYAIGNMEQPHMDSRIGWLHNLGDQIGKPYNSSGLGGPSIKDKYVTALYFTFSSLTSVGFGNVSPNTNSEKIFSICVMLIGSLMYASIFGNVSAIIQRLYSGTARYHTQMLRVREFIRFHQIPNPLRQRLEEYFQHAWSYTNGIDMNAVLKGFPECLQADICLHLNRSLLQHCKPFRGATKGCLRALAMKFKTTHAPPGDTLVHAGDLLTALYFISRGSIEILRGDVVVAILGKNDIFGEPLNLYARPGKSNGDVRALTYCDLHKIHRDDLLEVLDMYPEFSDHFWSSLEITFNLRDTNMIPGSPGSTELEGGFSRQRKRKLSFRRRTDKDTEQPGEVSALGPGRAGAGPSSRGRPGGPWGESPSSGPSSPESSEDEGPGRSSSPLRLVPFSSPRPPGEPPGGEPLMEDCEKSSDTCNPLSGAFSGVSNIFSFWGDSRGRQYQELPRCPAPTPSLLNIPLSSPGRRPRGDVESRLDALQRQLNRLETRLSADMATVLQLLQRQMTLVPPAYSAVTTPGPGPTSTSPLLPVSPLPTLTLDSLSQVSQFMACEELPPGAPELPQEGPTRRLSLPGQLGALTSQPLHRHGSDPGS
row,SMILES,"hERG current change (%, negative = inhibition) at 10uM [%]"
1,CC(=O)c1ccc(-n2c(-c3cc(-c4ccco4)[nH]n3)n[nH]c2=S)cc1,13.5
2,CCOP(=O)(OCC)C(NS(=O)(=O)c1ccccc1)C(Cl)(Cl)Cl (centres unmarked),11.9
3,N#Cc1c(N)n(-c2ccc(O)cc2)c2nc3ccccc3nc12,8.96
4,O=C(Nc1ccccc1)Nc1nnc(Cc2ccccc2F)s1,-12.2
5,Cc1cc([N+](=O)[O-])ccc1NC(=O)C(C)N1CCN(c2ccccn2)CC1 (centres unmarked),-71.4
6,COC(=O)C1=CO[C@@H](O[C@@H]2OC(CO)[C@@H](O)[C@@H](O)[C@@H]2O)C2C1CC[C@]2(C)O (some centres unmarked),-0.251
7,CCC(=O)N=c1sc2cc([N+](=O)[O-])ccc2n1CCOC,2.71
8,CCOC(=O)C(C)Sc1nc2c([nH]c3ccccc32)c(=O)n1C (centres unmarked),-6.19
9,NC(=O)/C(=C/c1ccco1)NC(=O)c1ccc(Br)o1,1.02
10,COc1ccc(CNC(=S)Nc2cccc(C)c2)cc1,2.63
11,COc1ccc(C(=O)Cn2nnc(-c3ccccc3NC(=O)C3CC3)n2)cc1,7.46
12,O=S1(=O)CC(O)C(NCc2ccco2)C1 (centres unmarked),-1.57
13,CCOc1ccc(CN2CCCC(CO)(Cc3ccccc3F)C2)cc1 (centres unmarked),-64.8
14,COc1ccccc1CNC(=O)CN(C)CC(=O)Nc1cccc(F)c1,4.16
15,Cc1cccc(CC(=O)N2CCC(n3nccc3NC(=O)C3CC3)CC2)c1,15.3
16,COC(=O)c1sc2nc(C)nc(SCC(=O)N3CCC(C(=O)O)CC3)c2c1C,36.5
17,COc1ccc(Nc2cc(C(=O)NCCCN3CCN(C)CC3)c3ccccc3n2)cc1,2.72
18,OCCC1CN(Cc2ccccc2O)CCN1CCCc1ccccc1 (centres unmarked),-74.8
19,CCCCN(CC)S(=O)(=O)c1ccc(C(=O)N(CCCN(C)C)c2nc3cc(C)cc(C)c3s2)cc1.Cl,-73
20,Cc1nn(CC#N)c(=O)n1-c1ccccc1F,10.8
21,CC(C)(C)c1ccc(OCCC(=O)Nc2cccc(S(=O)(=O)N3CCCC3)c2)cc1,3.88
22,O=C(CC1(O)C(=O)Nc2ccccc21)c1ccccc1 (centres unmarked),9.95

row,SMILES,"hERG current change (%, negative = inhibition) at 10uM [%]"
1,Cc1ccc(N(C(=O)C2CCCC2)C2C=CS(=O)(=O)C2)cc1C (centres unmarked),4.85
2,COc1ccc(N(C(=O)c2cccc(OC)c2OC)C2C=CS(=O)(=O)C2)c(OC)c1 (centres unmarked),-4.96
3,CCOC(=O)c1nnn(-c2nonc2N)c1-c1ccccc1,-3.78
4,CC1(C)CCC/C(=C\c2ccccc2)C1=O,-12.2
5,S=C(NCc1ccc(Cl)cc1)Nc1ccccc1Cl,7.31
6,O=C(COC(=O)c1cc([N+](=O)[O-])ccc1NCCO)Nc1cccc(S(=O)(=O)N2CCCC2)c1,2.59
7,O=C(Nc1ccncc1)c1c(F)cccc1F,-3.53
8,CCn1c(CN2CCOCC2)nnc1SCC(=O)Nc1ccc(C(C)=O)cc1,3.23
9,NCc1cccc(-n2cccn2)c1.O=C(O)CC(=O)O,-8.09
10,O=C(NCc1ccccc1)c1ccccc1OCC(=O)N1CCCCC1,-5.36
11,CCOc1ccc(/C(O)=C2/C(=O)C(=O)N(CCOCCO)C2c2ccc(F)cc2)cc1 (centres unmarked),7.73
12,Cc1ccc(Cn2nnc3c(=O)[nH]c(C4CCCN(C(=O)c5ccco5)C4)nc32)cc1 (centres unmarked),-16.1
13,O=C(COC(=O)COc1ccc(Cl)cc1)NCc1cccs1,7.36
14,COc1ccc(Cn2cccc(NC(=O)Nc3cccc(C#N)c3)c2=O)cc1,22.8
15,NC(=O)CC(CC(=O)OCc1ccccc1)c1ccccc1 (centres unmarked),10.8
16,CCCNC(=O)C12CCC(C)(c3nc4cc(C)c(C)cc4nc31)C2(C)C (centres unmarked),-5.58
17,COc1ccc(OCC(O)CN2CCCCC2)cc1.Cl (centres unmarked),8.1
18,CC(C)CCOc1ccc(Cl)cc1CN1CCOCC1.Cl,-2.16
19,CCOC(=O)c1cc(CC)sc1NC(=O)c1ccc(N2C(=O)CCC2=O)cc1,9.59
20,CCOc1ccc(S(=O)(=O)N2CCCC(C(=O)NCC3CCCO3)C2)cc1 (centres unmarked),-19.5
21,Cc1ccccc1S(=O)(=O)Oc1cccc2c(O)cccc12,18
22,O=C1CC(c2c[nH]c3ccccc23)C(=O)N1c1ccccc1 (centres unmarked),-2.29
